The test system of this assay is Na+ Channel (Site 2). Format: binding, rat.

Where a name gives a salt, the structure may show the parent alone.

This is an account of results in article PMC11089506 (Journal of Medicinal Chemistry, 2024).

As to `COc1cc(C(F)(F)F)c(OC)cc1[C@@H]1CCCNC1` [(S)-11, 3-(2,5-Dimethoxy-4-(trifluoromethyl)phenyl)piperidine Hydrochloride], the “% inhibition of the specific radioligand binding” value ((S)-11 10 μM, n=1) is 86%. Also, the IC50 (in general, the concentration that inhibits the measured activity by half) (estimated from the % inhibition data) was 1 to 10 µM.
